Measured values: the supplement of paper PMC11417369
± gives the standard deviation of the averaged measurements. The list shows a part of the results.

system: PfAP2-I AP2 domain 3 (GST-tagged); assay: gcPBM binding intensity (ln(normalized median fluorescence intensity)); higher = stronger DNA binding
How it was run: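 The binding buffer was 1× PBS containing 1% milk, 0.2 mg/ml BSA, 0.5% salmon testes DNA and 0.03% Triton X-100. In it, GST-tagged P. falciparum DNA-binding domains expressed in E. coli were applied for 1 h to an Agilent 4 × 180k array of primer-extended double-stranded 36-bp intergenic genomic probes plus negative controls. Binding intensity, read with Alexa488 anti-GST antibody and a 488 nm scan, is the highest Masliner-normalised natural-log median intensity across replicate spots of either probe orientation.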

Sequence	gcPBM binding intensity (ln)
TCATCCACATATTGTAGTACAAGATAATTGTTTATT [XGTACX_site1634]	8.07 ± 0.24
TTTAATACTTTTTTCTGTACACACTTGATTTACTAT [XGTACX_site5925]	8.18 ± 0.48
AAAAAAAAAAGACACACACACACACGGAGATATATA [CACACA_site6216]	7.76 ± 0.41
AATTTTAATTATATCACACATAATATATACCAAAAA [CACACA_site6011]	7.65 ± 0.68
TACATATTTTTATATACACACAATAATTACTATAAA [CACACA_site6879]	7.65 ± 0.3
AAAATACATAAACGTTCACACATTGAAGATCACAAG [CACACA_site5347]	7.66 ± 0.46
TAGGTACATAAATTGGTGCAAAGTGTACATATATAT	10.2 ± 0.11
CATATTTTCAAAATTAGTACATAAAAAAAAAAATAT [XGTACX_site3101]	8.03 ± 0.5
TATAATCATATATACACACACATATATATATATATA [CACACA_site2168]	9.27 ± 0.62
TCTTCCGCTTTATGGAGTACTATGGTAGCCTTTCCT [XGTACX_site2958]	7.63 ± 0.66
GACCTACAAAAAGGCACACATATACGCATACATACA [CACACA_site2179]	8.41 ± 0.42
ATATGCATAAAAAGAGGTACACATAAAATATATATA [XGTACX_site5864]	8.19 ± 0.64
TATACACATATATAAAGTACATATATGTGTAAAAAA [XGTACX_site8582]	7.61 ± 0.32
CAGATATTTGTTCATATACACACTTTTGATAAAATA [CACACA_site1219]	7.65 ± 0.47
AATATTTTTTGTTTTACACACATATATAGATATATA [CACACA_site7662]	8.04 ± 0.53
CAAAAAATGAAACACACACACACACCCATAAATAAA [CACACA_site1231]	8.09 ± 0.25
TCATATATAAAAAGGGTGCTTTTAAAAGAATGGATT	10.22 ± 0.028
TTTTTTTTTGTATTTTCACACATTTTTTTTTTTTTT [CACACA_site5407]	7.97 ± 0.67
TTATTTAAACAAATCACACACAAATATATATACATA [CACACA_site2019]	7.64 ± 0.4

Sequence	gcPBM binding intensity (ln)
TTTTTTGGGTAAAATTATAAAATATGTATATATAAA [CACACA_negctrl_site27]	7.62 ± 0.56
AAATATACAATATTCACACAAAAAAATACATTACAA [CACACA_site5004]	7.51 ± 0.65
ATATATTTATATTGTACACACATTTATGCATATATA [CACACA_site7502]	8.08 ± 0.45
TGTTTTTATAAAATAAATAAATATATATATATATAT [CACACA_negctrl_site502]	9.14 ± 0.51
TTTCTTACAAAAGCTAGAGTTTTTTTTTTTTTTTTT [XGTACX_negctrl_site341]	8.82 ± 0.52
AGAATAAATATGCACACATGCATATATTTTTACACT [TGCATGCA_site893]	10.83 ± 0.014
TTAGTCCATATTTTTGCACACCATTTTTTTTTTTTT [CACACA_site3927]	9.22 ± 0.38
ATCCTTAATATGAACACACAAATATATTGCACATAT [CACACA_site6230]	10.4 ± 0.23
TCTTTTTCATCTTTCAACAAAAAATAATATATGTGT [CACACA_negctrl_site866]	7.73 ± 0.59
TAAATTTGTGTTATTAAAAAAATGGTTTAAAAATGT [XGTACX_negctrl_site352]	7.89 ± 0.6
TAGGGTAGTTATAATTGTACTTTTCTCCAAAAAAAA [XGTACX_site7321]	7.78 ± 0.13
GAAATCTAAATAGAAACACACATATATATATATATA [CACACA_site3863]	9.3 ± 0.29
TTTTTGTTTTTTTGTTTATCGTTCGTGACTACATGA [TGCATGCA_negctrl_site124]	7.72 ± 0.61
AAAAATAAAAAATATAAAAATATAAAAATATAAAAA [XGTACX_negctrl_site51]	7.49 ± 0.76
TAGGTAAATGCAAATTGGTTTAAATCAAAATATAAA [XGTACX_negctrl_site250]	7.62 ± 0.71
TTTATTATTTTAACGTGTACAAGGTATATAATATTC [XGTACX_site5241]	8.06 ± 0.4
TGATATTATATATATACACACATGTATGTATTTATA [CACACA_site4874]	7.38 ± 0.45
GTATCAAAAGAATACACACACACATACAGATATATA [CACACA_site5975]	7.83 ± 0.38
ATAAACAAACATAAATCTGATTTTAATTTTTTTAAG [CACACA_negctrl_site313]	7.21 ± 0.45

Sequence	gcPBM binding intensity (ln)
ATATATATATTGAAAAGTACATATATATATATATTA [XGTACX_site1560]	8.795 ± 0.021
TGGATAATCAAAAATTGTACAAGTGTTGTTATTGGT [XGTACX_site8010]	7.93 ± 0.45
ACCGGTGGAACGTTTTGTACATATATAATAATATAT [XGTACX_site2143]	7.75 ± 0.5
CTTGGGAAGTATTCAGTGCAAAATATAAGCAGGTCA [GTGCAC_site9758]	10.5 ± 0.11
AAAAGAAATAAGGATACACACTATTGATAAAAGTAG [CACACA_site4309]	7.92 ± 0.59
TATTACAAATAATACCGTACACAAATGTTTTTTTAT [XGTACX_site7977]	7.7 ± 0.52
TCGTGGGAAAATATTACACACATTTACTATAGTATC [CACACA_site5836]	8.05 ± 0.6
TATATATTAATCAAAGTGCAATAATAAAATAAAAGT [GTGCAC_site9490]	10.8 ± 0.34
CTCTAATTAATATTTGTACACACATATTTAACCTAC [CACACA_site9043]	8.06 ± 0.46
TAACTTTATTTTCCTGTACACACATTTGACATATTA [CACACA_site9116]	8.21 ± 0.59
TCAAATTACGTAAGAACATGCGATATAAGAAATACG [TGCATGCA_site691]	8.07 ± 0.61
AGCAGACACCAACACACACACATATATATATATATA [CACACA_site337]	9.45 ± 0.3
TTTATACAAAAGAACAGTACAATAAAGGATTTATGA [XGTACX_site811]	7.69 ± 0.58
CATATTCCCCCCCACACACACACACGCATACATACC [CACACA_site7148]	10.8 ± 0.33
ATATAAAAAATATAAGGTACACATATATGTAGATAT [XGTACX_site6792]	8.03 ± 0.64
TAAATAAAATACAAATGTACATAAATAATAAATATA [XGTACX_site1813]	7.79 ± 0.47
AATTATTTTAAATATTGTACTATTACAGAATGGTGT [XGTACX_site5693]	8.04 ± 0.52
CTTTTTTATTTTTCAACACACATAATAAATTTCTAT [CACACA_site1037]	7.97 ± 0.6
GGTTAAAAAAAGCATACACACTATCCTCTTTGCTCT [CACACA_site7246]	7.9 ± 0.65
